Reference: ChEMBL document CHEMBL5308541, “MAIP: An Open-Source Tool to Enrich High-Throughput Screening Output and Identify Novel, Druglike Molecules with Antimalarial Activity” (ACS Med Chem Lett, 2023)
Out of some 150,000 compounds screened, about 540 (0.36%) showed an effect of 50% or more. Some of the results follow.

System: Plasmodium falciparum
Experiment: Primary screen in NF54 nanoGlo assay, in single point, at 2uM, 72h; a lower Z score goes with more inhibition
Type: functional, Erythrocyte
Conditions: timepoint 72 hour

| SMILES | % Inhibition [%] | Z score |
| --- | --- | --- |
| CN(C)C1(CNc2nc(C(F)(F)F)nc3cc4c(cc23)OCO4)CCCCCC1 | 54 | -8.21 |
| FC(F)(F)c1cc(Nc2ccc(-c3cncnc3)cc2)nc(-c2ccncc2)n1 | -11 | 2.38 |
| CCc1ccc2nc(-c3c(C)noc3C)[nH]c2c1 | -2 | 0.42 |
| CN[C@@H](CO)c1cccc(-c2cc(CN3CCCC3)ccc2F)c1 | 4 | -0.77 |
| Cc1cc(NCc2cc(-c3cccc(F)c3)no2)nc(N)n1 | 4 | -0.94 |
| Cn1cc(CCN2CCC(N3CCN(c4cccc(Cl)c4)CC3)CC2)nn1 | -4 | 0.56 |
| Cc1ncsc1CCCNC(=O)c1cc(=O)n(-c2ccccc2)[nH]1 | -1 | 0.1 |
| O=C(CN1CCCN(c2cncc(OCC3CCCC3)n2)CC1)N1CCCC1 | -4 | 0.66 |
| O=C1CC[C@H](NCc2nc3cc(Cl)ccc3[nH]2)CN1Cc1ccccc1 | -8 | 1.64 |
| CS(=O)(=O)C1(C(=O)N2CC[C@H](Nc3ccc4nccn4n3)C2)CCCC1 | 0 | -0.05 |
| CS(=O)(=O)N1CCN(CCN[C@H]2CCOC23CCCC3)CC1 | -2 | 0.3 |
| CS(=O)(=O)Cc1ccc(N2CC3CN(CC4CC4)CC3(CO)C2)nc1 (stereo not given) | 1 | -0.15 |
| Cc1nn(-c2ccccn2)c(C)c1CCNS(=O)(=O)c1c(F)cccc1F | -9 | 1.61 |
| Cc1nc2ccc(C(=O)N[C@@H](C)c3nc(CC(C)C)no3)cc2o1 | -8 | 1.54 |
| CC1CCC(C)N1CCN1CCN(CCn2ccc3cc(Cl)ccc32)CC1 (stereo not given) | 3 | -0.62 |
| Cc1cc(-c2nc(C(=O)NC3CCN(CC(F)F)CC3)co2)ccn1 | -9 | 1.86 |
| OCCCNc1nn2cc(-c3ccc(F)cc3)nc2s1 | 41 | -7.13 |
| CN1CCOC2(CCN(c3cc(C(F)(F)F)nc(N4CCCC4)n3)CC2)C1 | -9 | 1.59 |
| CC(=O)NC1CCN(C(=O)c2cccc(-c3ccc4occc4c3)c2)CC1 | 5 | -0.82 |
| CC1=CC(C)CC(CNC2CCN(c3ccccn3)C2)C1 (stereo not given) | -7 | 1.45 |
| Cc1n[nH]c(=O)nc1Nc1ccc(Oc2ccccc2)cc1 | 5 | -1.09 |
| N#CC1(c2ccc(-c3ccc(C(=O)N[C@H]4CCOC4)cc3)cc2)CCCC1 | -11 | 1.9 |
| Clc1cccc(-c2noc3ncnc(N4CCC(N5CCCCC5)CC4)c23)c1 | 3 | -0.44 |
| Cc1n[nH]c(C)c1-c1ccc(C(F)(F)CN)cc1 | 12 | -1.78 |
| Cc1c(CNC2CCN(c3ccc(CC(=O)N4CCC(O)CC4)cc3)CC2)cnn1C | -10 | 1.78 |
| Nc1c(F)cccc1CN1CCC(Oc2ncccc2F)CC1 | 4 | -0.82 |
| N#Cc1ccccc1-c1cccc(C(=O)N2CCC[C@H](CN3CCCC3)C2)c1 | 2 | -0.33 |

| SMILES | % Inhibition [%] | Z score |
| --- | --- | --- |
| CCN1CCN(C(=O)c2ccc(N3CCC(NCc4nc5cc(F)ccc5[nH]4)CC3)cc2)CC1 | -7 | 1.3 |
| Clc1ccc(-c2noc3ncnc(N(CCCN4CCOCC4)Cc4ccco4)c23)cc1 | -12 | 2.05 |
| N#Cc1ccc(CNC2CCN(Cc3ccccc3F)CC2)cc1 | -6 | 1.03 |
| COC(=O)CCC1CN(C2CCN(C)CC2)CCC1N1CCN(C)CC1 (stereo not given) | -11 | 1.99 |
| O=C(Nc1cccc(CN2CCCCC2)c1)C1CN2CCCN1CC2 (stereo not given) | -7 | 1.31 |
| Cc1ccc(CNc2nc(CN3CCCC[C@@H]3CCO)nc3ccccc23)cc1 | -5 | 0.81 |
| O=C(Cc1cc2ccccc2[nH]c1=O)Nc1cc(Cl)ccc1N1CCCCC1 | -1 | 0.18 |
| CN(C)CCCN=C(N)Nc1ccccc1 | -3 | 0.65 |
| N#Cc1ccc(C(F)(F)F)c(NCCc2nnc[nH]2)c1 | -4 | 0.77 |
| Cc1ccc2nc(Nc3ccc(N(C)C)cc3)c(Nc3ccc(N(C)C)cc3)nc2c1 | 13 | -2.26 |
| Nc1nc(NCc2ccc(N3CCOCC3)cc2)c2cn[nH]c2n1 | -8 | 1.41 |
| Cc1cc2c(cc1CN1CCN(C3CCNCC3)C[C@@H](O)C1)OCO2 | 3 | -0.64 |
| O=C(N[C@@H]1CCC[C@H]1OCc1ccccc1)[C@@H]1CCCN1C1CCNCC1 | -9 | 1.48 |
| Fc1cc(CCNc2nc(C(F)(F)F)nc3ccccc23)c2c(c1)COCO2 | -7 | 1.2 |
| O=C(c1cc(-c2ccc(F)cc2)n[nH]1)N1CCN(c2nc(-c3ccsc3)cs2)CC1 | 0 | -0.04 |
| C[C@H](NC(=O)c1nnc2ccccc2c1O)c1cccc(N2CCCC2)c1 | -1 | 0.17 |
| NC(=O)c1n[nH]c2ccc(NC(=O)c3cncc(-c4ccccc4)c3)cc12 | 13 | -2.65 |
| c1cnc(OC2CCN(c3nccnc3OC3CCC3)CC2)cn1 | 0 | 0.06 |
| CCCOc1ccccc1-c1nnc(NCC2(O)CCN(C)CC2)o1 | -6 | 0.93 |
| Cc1nc2ccc(C(=O)NC[C@H]3CCCN3c3nc4ccccc4o3)cc2s1 | -3 | 0.51 |
| c1cc2c(cc1N1CCC(NCCCc3nnn[nH]3)CC1)OCO2 | 21 | -3.77 |
| Cn1ncc(N2CC[C@H](CNc3ncc(F)c(N4CCOCC4)n3)C2)cc1=O | -5 | 0.9 |
| COCC(C)(C)N(Cc1ccccc1)C(=O)c1ccc2nnnn2c1 | -2 | 0.36 |
| COCCNc1cc(-c2ccnc(OC)c2C#N)c2cc[nH]c2n1 | -5 | 0.96 |
| CN(C)C(=O)C1CCCC(NC(=O)c2ncn(-c3ccccc3)n2)C1 (stereo not given) | -4 | 0.8 |
| Cc1c(Cl)cccc1N1CCCN(c2ccnc(N3CCOCC3)n2)CC1 | -5 | 0.92 |
| c1ccc(CCN2CCC(NCCc3ncc[nH]3)CC2)cc1 | 6 | -1 |

| SMILES | % Inhibition [%] | Z score |
| --- | --- | --- |
| COc1ccc(N2CCN(CCCNc3nc4ccccc4o3)CC2)cc1 | -11 | 1.74 |
| CCCC(=O)NC1(C(F)(F)F)CCN(C(=O)OC(C)(C)C)CC1 | 1 | -0.1 |
| COC1CN(c2ccc(NS(=O)(=O)CCOc3ccccc3)cc2)C1 | -10 | 1.79 |
| CCCCN1CCOC[C@H]1C(=O)NC1CCN(c2cc(C)nc(C)n2)CC1 | -9 | 1.49 |
| COc1ccc(CNCCc2c[nH]cn2)c(OC[C@@H](O)CN2CCCC2)c1 | 1 | -0.25 |
| O=C(c1[nH]nc2ccccc12)N1CC[C@@]2(C1)NCc1ccccc1N=C2NC1CCCC1 | -1 | 0.29 |
| Nc1ncc(-c2ccc(C(=O)NC3(CN4CCCC4)CCCCC3)cc2)cn1 | -7 | 1.51 |
| Cc1cc(O)c(Cl)cc1-c1ccc2ncnc(N)c2c1 | -5 | 0.82 |
| c1cnc(-c2nc(CCNc3ccc4cc[nH]c4n3)cs2)nc1 | -5 | 0.88 |
| CC[C@@H](NC(=O)c1oc2c(C)ccc(C)c2c1C)C(N)=O | -1 | 0.21 |
| CCNc1ccnc(NC[C@H]2CCCN(C3CCCCC3)C2)n1 | 2 | -0.35 |
| CCNc1nc(NCC)nc(Nc2ccc(Oc3ccccc3)cc2)n1 | 2 | -0.31 |
| CN1C2CCC1CC(N1CCN(C(=O)[C@H]3C[C@@]34CCOc3ccc(F)cc34)CC1)C2 (stereo not given in full) | -5 | 0.81 |
| Cc1cccc(-c2cccc(N3CCC(NC[C@H]4CCC(=O)N4)CC3)c2)c1 | 1 | -0.25 |
| CCN1CCCCC1CNc1cc(N2CCCC2C(N)=O)ncn1 (stereo not given) | -10 | 1.73 |
| N#Cc1nccnc1Nc1ccc(Oc2ccccc2Cl)cc1 | -7 | 1.31 |
| O[C@@H](CNc1nc2ccccc2s1)c1ccc2ccccc2c1 | -4 | 0.64 |
| O=C(c1csc(Nc2ccccn2)n1)N1CCCN(CC2CCC2)CC1 | -8 | 1.49 |
| O=C(O)C1CCC(C(=O)NCc2cnc3ccccc3c2)C1 (stereo not given) | -1 | 0.1 |
| COc1cccc(-c2cc3[nH]c4c(c(=O)n3n2)CCC4)c1 | -3 | 0.44 |
| C[C@H](O)Cn1cnc(-c2ccccc2)c1-c1ccccc1-c1ccco1 | 10 | -2.07 |
| C[C@@H](CCNC(=O)N(Cc1ccc2[nH]ccc2c1)C1CC1)N1CCN(C)CC1 | -1 | 0.2 |
| O=C(Nc1ccc2scnc2c1)NC1CCN(Cc2cccc(O)c2)CC1 | -5 | 0.97 |
| c1cc2ccc(CN3CCC(OCCc4noc(C5CCOCC5)n4)CC3)cc2[nH]1 | -1 | 0.09 |
| c1cc(N2CCNCC2)ccc1-c1ccc2c(c1)OCC2 | -7 | 1.24 |
| Cc1cnccc1OC1CCN(c2cc(N3CCC[C@H](CO)C3)ncn2)CC1 | -11 | 2.22 |
